According to patent publication US8088574B2, “Poly(A) polymerase” (Wisconsin Alumni Research Foundation, priority 2007, dated 2012):

System: Star-PAP association with PIPKIα, CSPF-73 and RNA Pol II
Assay: immunoprecipitation of endogenous Star-PAP and detection of associated proteins after tBHQ treatment
Settings: 100 μM tBHQ for 4 hours, HEK-293 cells

CC(C)(C)c1cc(O)ccc1O [tBHQ, tert-butylhydroquinone] was tested. Which “association of endogenous Star-PAP with PIPKIα, CSPF-73 and RNA Pol II” value did it give?
The value was “enhanced”.
